Publication PMC10416611
Results are given in words; binding and its absence hold for the method and conditions named. For part of these data: Binding seen in cells or lysates may run through a third protein. Some entries that bind do so weakly or less than the wild type. For part of these data: Where a sequence is shown, tags or fusion partners need not be part of it.

Protein sequences, listed by entry. Tags and fused reporters are not part of them.
UniProt P22953: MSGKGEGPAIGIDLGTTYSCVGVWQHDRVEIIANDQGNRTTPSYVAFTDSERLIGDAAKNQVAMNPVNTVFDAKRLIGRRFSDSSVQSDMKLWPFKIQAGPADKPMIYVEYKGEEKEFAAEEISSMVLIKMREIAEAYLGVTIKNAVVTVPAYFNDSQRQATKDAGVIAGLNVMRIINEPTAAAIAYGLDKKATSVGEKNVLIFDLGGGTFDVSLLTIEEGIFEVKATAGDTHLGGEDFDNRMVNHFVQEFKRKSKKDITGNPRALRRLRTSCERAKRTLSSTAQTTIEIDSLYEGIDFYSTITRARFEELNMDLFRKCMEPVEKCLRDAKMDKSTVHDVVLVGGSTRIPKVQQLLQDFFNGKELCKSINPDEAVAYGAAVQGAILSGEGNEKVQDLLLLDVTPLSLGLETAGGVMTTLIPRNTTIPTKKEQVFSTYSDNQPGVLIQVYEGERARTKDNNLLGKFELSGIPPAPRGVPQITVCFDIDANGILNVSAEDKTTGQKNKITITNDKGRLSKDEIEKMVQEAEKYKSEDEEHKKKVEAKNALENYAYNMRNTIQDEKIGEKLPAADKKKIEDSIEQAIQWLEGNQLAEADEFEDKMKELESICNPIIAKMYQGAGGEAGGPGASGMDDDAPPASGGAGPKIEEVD
UniProt P22954: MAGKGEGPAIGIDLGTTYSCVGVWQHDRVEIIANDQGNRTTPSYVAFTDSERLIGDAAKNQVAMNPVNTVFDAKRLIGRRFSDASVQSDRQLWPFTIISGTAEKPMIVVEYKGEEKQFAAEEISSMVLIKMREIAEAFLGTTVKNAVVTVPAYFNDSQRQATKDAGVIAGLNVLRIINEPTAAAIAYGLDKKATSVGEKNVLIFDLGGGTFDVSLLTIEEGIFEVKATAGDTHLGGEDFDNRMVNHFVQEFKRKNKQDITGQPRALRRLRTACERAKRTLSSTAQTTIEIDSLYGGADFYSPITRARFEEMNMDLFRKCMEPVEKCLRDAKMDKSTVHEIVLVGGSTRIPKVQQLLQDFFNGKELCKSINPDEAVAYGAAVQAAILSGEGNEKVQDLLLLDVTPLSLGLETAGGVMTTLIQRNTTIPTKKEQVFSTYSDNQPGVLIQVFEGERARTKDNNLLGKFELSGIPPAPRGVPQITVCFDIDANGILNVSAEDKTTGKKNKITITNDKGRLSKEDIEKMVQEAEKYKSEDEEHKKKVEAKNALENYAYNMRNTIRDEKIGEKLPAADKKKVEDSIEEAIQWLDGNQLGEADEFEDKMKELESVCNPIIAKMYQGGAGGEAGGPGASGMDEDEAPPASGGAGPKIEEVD
UniProt Q9S9N1: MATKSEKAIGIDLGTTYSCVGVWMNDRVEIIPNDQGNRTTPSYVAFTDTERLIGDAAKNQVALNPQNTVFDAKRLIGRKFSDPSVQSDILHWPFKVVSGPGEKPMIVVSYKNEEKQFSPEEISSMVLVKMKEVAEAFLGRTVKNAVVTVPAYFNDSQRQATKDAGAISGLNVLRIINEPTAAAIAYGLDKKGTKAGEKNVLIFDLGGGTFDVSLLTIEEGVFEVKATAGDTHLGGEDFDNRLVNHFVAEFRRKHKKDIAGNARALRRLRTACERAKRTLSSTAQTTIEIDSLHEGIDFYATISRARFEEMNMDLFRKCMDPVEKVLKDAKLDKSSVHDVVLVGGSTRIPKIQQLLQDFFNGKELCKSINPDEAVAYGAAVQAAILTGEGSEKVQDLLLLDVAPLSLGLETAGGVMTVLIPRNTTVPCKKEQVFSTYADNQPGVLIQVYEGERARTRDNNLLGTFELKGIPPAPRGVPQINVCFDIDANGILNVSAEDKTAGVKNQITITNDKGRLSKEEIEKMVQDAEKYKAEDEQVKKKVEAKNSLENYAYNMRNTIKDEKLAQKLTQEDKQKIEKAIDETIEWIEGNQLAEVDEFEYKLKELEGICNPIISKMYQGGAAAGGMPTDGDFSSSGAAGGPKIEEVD

Experiments:
[1] = biological target: myc-tagged HSP70-1 (HSP70-1-myc) (Arabidopsis thaliana) (UniProt P22953); assay: co-IP; RHD6-GFP, HSP70-1-myc and AHL17-FLAG co-expressed in N. benthamiana leaves; precipitated with anti-myc beads or anti-GFP beads; western blot with anti-GFP, anti-myc and anti-FLAG
[2] = biological target: AT-HOOK MOTIF NUCLEAR LOCALIZED 17 (AHL17), luciferase-half fusions for LCI (Arabidopsis thaliana) (UniProt Q9LTA2); assay: split reporter; luciferase complementation imaging (LCI, also printed LIC): X-nLUC and cLUC-Y co-infiltrated by Agrobacterium into N. benthamiana leaves; LUC activity detected 2 days after infiltration
[3] = biological target: T1, AT-HOOK MOTIF NUCLEAR LOCALIZED 28 (AHL28), luciferase-half fusions for LCI (Arabidopsis thaliana) (UniProt Q9M9R4); assay: as above
T1 sequence: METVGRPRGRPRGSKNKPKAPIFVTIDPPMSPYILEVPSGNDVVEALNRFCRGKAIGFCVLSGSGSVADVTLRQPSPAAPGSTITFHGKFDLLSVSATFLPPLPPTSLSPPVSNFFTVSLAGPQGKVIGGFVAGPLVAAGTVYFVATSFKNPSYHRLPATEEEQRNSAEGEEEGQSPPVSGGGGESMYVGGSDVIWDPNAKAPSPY

[4] = biological target: T2, ROOT HAIR …6 (RHD6), luciferase-half fusion for LCI (Arabidopsis thaliana) (UniProt Q9C707); assay: as above
T2 sequence: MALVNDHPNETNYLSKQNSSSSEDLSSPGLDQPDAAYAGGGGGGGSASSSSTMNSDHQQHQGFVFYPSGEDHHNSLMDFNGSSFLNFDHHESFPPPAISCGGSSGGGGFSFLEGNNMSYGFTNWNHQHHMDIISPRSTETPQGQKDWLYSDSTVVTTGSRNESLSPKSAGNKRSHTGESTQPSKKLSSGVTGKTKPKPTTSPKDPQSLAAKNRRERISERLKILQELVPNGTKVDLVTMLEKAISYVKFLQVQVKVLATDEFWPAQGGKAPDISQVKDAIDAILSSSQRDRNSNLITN

[5] = biological target: T3, RHD6, nYFP fusion for BiFC (Arabidopsis thaliana) (UniProt Q9C707); assay: split reporter; BiFC: nYFP and cYFP fusions co-infiltrated into N. benthamiana leaves; YFP fluorescence examined 2 days after infiltration by confocal microscopy
T3 sequence: T2 sequence

[6] = biological target: T4, AHL28, YFP-half fusions for BiFC (Arabidopsis thaliana) (UniProt Q9M9R4); assay: as above
T4 sequence: T1 sequence

[7] = biological target: AHL17, YFP-half fusion for BiFC (Arabidopsis thaliana) (UniProt Q9LTA2); assay: as above
[8] = biological target: AHL17, yeast two-hybrid fusion (Arabidopsis thaliana) (UniProt Q9LTA2); assay: two-hybrid; yeast two-hybrid experiments named only in the discussion; no format told
[9] = biological target: T5, RHD6-GFP (Arabidopsis thaliana) (UniProt Q9C707); assay: co-IP; two constructs co-expressed in N. benthamiana leaves; total proteins precipitated with anti-GFP Magarose beads, 4°C, 1 h, washed at least six times; western blot with anti-GFP and anti-myc
T5 sequence: T2 sequence

[10] = biological target: GFP-tagged AHL17 (AHL17-GFP) (Arabidopsis thaliana) (UniProt Q9LTA2); assay: as above

AHL17-FLAG (from UniProt Q9LTA2 1-276) was tested, and the binding [1] was “binds”.

For “AT-HOOK MOTIF NUCLEAR LOCALIZED 17 (AHL17), luciferase-half fusions for LCI (from UniProt Q9LTA2 1-276)”, the binding [2] was “binds” and the binding [3] was “binds”.

For “HEAT SHOCK PROTEIN 70-1 (HSP70-1), cLUC fusion for LCI (from UniProt P22953 1-651)”, the binding [2] was “binds”, the binding [4] was “binds” and the binding [3] was “binds”.

With “HSP70-1, YFP-half fusions for BiFC (from UniProt P22953 1-651)” the binding [5] was “binds”, the binding [6] was “binds” and the binding [7] was “binds”.

For “HSP70-1, yeast two-hybrid fusion (from UniProt P22953 1-651)”, the binding [8] was “binds”.

“HSP70-2, YFP-half fusion for BiFC (from UniProt P22954 1-653)” was tested, and the binding [6] was “binds” and the binding [7] was “binds”.

With “HSP70-2, cLUC fusion for LCI (from UniProt P22954 1-653)” the binding [2] was “binds” and the binding [3] was “binds”.

“HSP70-2, yeast two-hybrid fusion (from UniProt P22954 1-653)” was tested, and the binding [8] was “binds”.

For “HSP70-5, cLUC fusion for LCI (from UniProt Q9S9N1 1-646)”, the binding [2] was “no binding”.

In the case of “myc-tagged HSP70-1 (HSP70-1-myc) (from UniProt P22953 1-651)”, the binding [9] is reported as “binds” and the binding [10] is reported as “binds”.
